Results: the supplement of paper PMC4967469

Columns and labels:
Experiment in all cases: Viability of human cancer cell lines after 72 h of drug (GDSC screen)
NG-25 = compound: CCN1CCN(Cc2ccc(NC(=O)c3ccc(C)c(Oc4ccnc5[nH]ccc45)c3)cc2C(F)(F)F)CC1 [NG-25]; conditions: top dose 10.24 µM; top dose inferred
Method: (§1)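 Human cancer cell lines in 384-well plates, medium with 10% serum, drug for 72 h over a 256-fold dose range (nine 2-fold or five 4-fold steps up to the top dose). Adherent lines were fixed and stained with the nucleic acid dye Syto60, suspension lines read with resazurin; signal relative to control wells, capped at 0 and 100%. One two-parameter sigmoid per drug and line, fitted in a mixed model over all curves with the slope shared within a line.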

GSK-1904529A = compound: CCc1cc(Nc2nccc(-c3c(-c4ccc(OC)c(C(=O)Nc5c(F)cccc5F)c4)nc4ccccn34)n2)c(OC)cc1N1CCC(N2CCN(S(C)(=O)=O)CC2)CC1 [GSK-1904529A]; conditions: top dose 1.024 µM; top dose inferred
Method: as §1

PFI-1 = compound: COc1ccccc1S(=O)(=O)Nc1ccc2c(c1)CN(C)C(=O)N2 [PFI-1]; conditions: top dose 10 µM; top dose inferred
Method: as §1

Tipifarnib = compound: Cn1cncc1[C@@](N)(c1ccc(Cl)cc1)c1ccc2c(c1)c(-c1cccc(Cl)c1)cc(=O)n2C [Tipifarnib]; conditions: top dose 16 µM; top dose inferred
Method: as §1

Row | Cell Line | AUC (NG-25) | IC50 (NG-25) [µM] | AUC (GSK-1904529A) | IC50 (GSK-1904529A) [µM] | AUC (PFI-1) | IC50 (PFI-1) [µM] | AUC (Tipifarnib) | IC50 (Tipifarnib) [µM]
1 | NCI-H841 (small cell lung carcinoma, adherent) | 0.942 | > 10.2 | 0.973 | > 1.02 | 0.955 | > 10 | 0.876 | 16
2 | NCI-H1048 (small cell lung carcinoma, adherent) | 0.792 | 4.12 | 0.989 | > 1.02 | 0.977 | > 10 | 0.853 | 10.6
3 | NCI-H1299 (large cell lung carcinoma, adherent) | 0.913 | > 10.2 | 0.908 | > 1.02 | 0.893 | > 10 | 0.429 | 0.61
4 | NCI-H1435 (lung adenocarcinoma, semi-adherent) | 0.991 | > 10.2 | 0.992 | > 1.02 | 0.916 | > 10 | 0.924 | > 16
5 | NCI-H1437 (lung adenocarcinoma, adherent) | 0.93 | > 10.2 | 0.943 | > 1.02 | 0.926 | > 10 | 0.727 | 4.57
6 | NCI-H1563 (lung adenocarcinoma, adherent) | 0.886 | > 10.2 | 0.951 | > 1.02 | 0.863 | > 10 | 0.869 | > 16
7 | NCI-H1568 (lung adenocarcinoma, adherent) | 0.981 | > 10.2 | 0.967 | > 1.02 | 0.841 | 9.59 | 0.49 | 0.934
8 | NCI-H1573 (lung adenocarcinoma, adherent) | 0.985 | > 10.2 | 0.991 | > 1.02 | 0.923 | > 10 | 0.984 | > 16
9 | NCI-H1623 (lung adenocarcinoma, adherent) | 0.926 | > 10.2 | 0.985 | > 1.02 | 0.981 | > 10 | 0.907 | > 16
10 | NCI-H1651 (lung adenocarcinoma, adherent) | 0.987 | > 10.2 | 0.979 | > 1.02 | 0.964 | > 10 | 0.854 | 14.2
11 | NCI-H1688 (small cell lung carcinoma, adherent) | 0.777 | 4.55 | 0.986 | > 1.02 | 0.975 | > 10 | 0.851 | 14.3
12 | NCI-H1693 (lung adenocarcinoma, adherent) | 0.916 | > 10.2 | 0.972 | > 1.02 | 0.874 | > 10 | 0.875 | > 16
13 | NCI-H1703 (lung adenocarcinoma, adherent) | 0.888 | > 10.2 | 0.981 | > 1.02 | 0.961 | > 10 | 0.827 | 12.9
14 | NCI-H1755 (lung adenocarcinoma, adherent) | 0.871 | > 10.2 | 0.98 | > 1.02 | 0.946 | > 10 | 0.842 | 13.9
15 | NCI-H1781 (lung adenocarcinoma, adherent) | 0.912 | > 10.2 | 0.985 | > 1.02 | 0.985 | > 10 | 0.772 | 6.17
16 | NCI-H1792 (lung adenocarcinoma, adherent) | 0.938 | > 10.2 | 0.989 | > 1.02 | 0.894 | > 10 | 0.791 | 6.4
17 | NCI-H1793 (lung adenocarcinoma, adherent) | 0.967 | > 10.2 | 0.977 | > 1.02 | 0.961 | > 10 | 0.823 | 15
18 | NCI-H1915 (large cell lung carcinoma, adherent) | 0.905 | > 10.2 | 0.988 | > 1.02 | 0.95 | > 10 | 0.574 | 1.6
19 | NCI-H1944 (lung adenocarcinoma, adherent) | 0.855 | 9.01 | 0.936 | > 1.02 | 0.789 | 4.75 | 0.617 | 2.14

Row | Cell Line | AUC (NG-25) | IC50 (NG-25) [µM] | AUC (GSK-1904529A) | IC50 (GSK-1904529A) [µM] | AUC (PFI-1) | IC50 (PFI-1) [µM] | AUC (Tipifarnib) | IC50 (Tipifarnib) [µM]
20 | NCI-H1993 (lung adenocarcinoma, adherent) | 0.964 | > 10.2 | 0.976 | > 1.02 | 0.878 | > 10 | 0.85 | > 16
21 | NCI-H2009 (lung adenocarcinoma, adherent) | 0.968 | > 10.2 | 0.936 | > 1.02 | 0.925 | > 10 | 0.35 | 0.374
22 | NCI-H2023 (lung adenocarcinoma, adherent) | 0.978 | > 10.2 | 0.979 | > 1.02 | 0.903 | > 10 | 0.828 | 13.3
23 | NCI-H2029 (small cell lung carcinoma, adherent) | 0.952 | > 10.2 | 0.992 | > 1.02 | 0.991 | > 10 | 0.98 | > 16
24 | NCI-H2030 (lung adenocarcinoma, adherent) | 0.828 | 7.58 | 0.976 | > 1.02 | 0.901 | > 10 | 0.589 | 1.81
25 | NCI-H2085 (lung adenocarcinoma, adherent) | 0.882 | > 10.2 | 0.946 | > 1.02 | 0.94 | > 10 | 0.754 | 5.79
26 | NCI-H2087 (lung adenocarcinoma, semi-adherent) | 0.921 | > 10.2 | 0.979 | > 1.02 | 0.886 | > 10 | 0.62 | 2.2
27 | NCI-H2110 (non-small cell lung carcinoma, adherent) | 0.627 | 1.44 | 0.977 | > 1.02 | 0.932 | > 10 | 0.634 | 2.37
28 | NCI-H2122 (lung adenocarcinoma, adherent) | 0.988 | > 10.2 | 0.986 | > 1.02 | 0.973 | > 10 | 0.271 | 0.235
29 | NCI-H2170 (lung squamous cell carcinoma, adherent) | 0.974 | > 10.2 | 0.987 | > 1.02 | 0.967 | > 10 | 0.771 | 6.42
30 | NCI-H2172 (non-small cell lung carcinoma, adherent) | 0.859 | > 10.2 | 0.941 | > 1.02 | 0.963 | > 10 | 0.78 | 9.15
31 | NCI-H2227 (small cell lung carcinoma, semi-adherent) | 0.91 | > 10.2 | 0.986 | > 1.02 | 0.825 | 7.1 | 0.981 | > 16
32 | NCI-H2228 (lung adenocarcinoma, adherent) | 0.939 | > 10.2 | 0.963 | > 1.02 | 0.971 | > 10 | 0.64 | 2.98
33 | NCI-H2291 (lung adenocarcinoma, adherent) | 0.982 | > 10.2 | 0.983 | > 1.02 | 0.944 | > 10 | 0.976 | > 16
34 | NCI-H2342 (lung adenocarcinoma, adherent) | 0.962 | > 10.2 | 0.879 | > 1.02 | 0.959 | > 10 | 0.396 | 0.501
35 | NCI-H2347 (lung adenocarcinoma, adherent) | 0.927 | > 10.2 | 0.971 | > 1.02 | 0.827 | 7.93 | 0.735 | 5.52
36 | NCI-H2405 (lung adenocarcinoma, adherent) | 0.956 | > 10.2 | 0.966 | > 1.02 | 0.944 | > 10 | 0.791 | 8.07
37 | NCI-H2444 (non-small cell lung carcinoma, adherent) | 0.987 | > 10.2 | 0.988 | > 1.02 | 0.937 | > 10 | 0.93 | > 16
38 | NCI-H2452 (mesothelioma, adherent) | 0.971 | > 10.2 | 0.971 | > 1.02 | 0.882 | > 10 | 0.892 | > 16

Row | Cell Line | AUC (NG-25) | IC50 (NG-25) [µM] | AUC (GSK-1904529A) | IC50 (GSK-1904529A) [µM] | AUC (PFI-1) | IC50 (PFI-1) [µM] | AUC (Tipifarnib) | IC50 (Tipifarnib) [µM]
39 | NUGC-3 (stomach, adherent) | 0.941 | > 10.2 | 0.825 | 0.716 | 0.902 | > 10 | 0.682 | 3.47
40 | NUGC-4 (stomach, adherent) | 0.763 | 3.69 | 0.916 | > 1.02 | 0.736 | 2.94 | 0.726 | 4.38
41 | NY (osteosarcoma, adherent) | 0.989 | > 10.2 | 0.983 | > 1.02 | 0.894 | > 10 | 0.668 | 2.92
42 | OAW-28 (ovary, adherent) | 0.849 | > 10.2 | 0.963 | > 1.02 | 0.861 | > 10 | 0.855 | > 16
43 | OAW-42 (ovary, adherent) | 0.974 | > 10.2 | 0.956 | > 1.02 | 0.879 | > 10 | 0.499 | 0.992
44 | OE19 (oesophagus, adherent) | 0.983 | > 10.2 | 0.939 | > 1.02 | 0.914 | > 10 | 0.732 | 5.08
45 | OE21 (oesophagus, adherent) | 0.949 | > 10.2 | 0.966 | > 1.02 | 0.717 | 3.28 | 0.629 | 2.59
46 | OE33 (oesophagus, adherent) | 0.874 | > 10.2 | 0.948 | > 1.02 | 0.929 | > 10 | 0.775 | 7.57
47 | OSC-19 (head and neck, adherent) | 0.91 | > 10.2 | 0.964 | > 1.02 | 0.835 | 6.93 | 0.75 | 5.42
48 | OSC-20 (head and neck, adherent) | 0.942 | > 10.2 | 0.977 | > 1.02 | 0.877 | > 10 | 0.542 | 1.33
49 | OV-90 (ovary, adherent) | 0.971 | > 10.2 | 0.966 | > 1.02 | 0.853 | > 10 | 0.788 | 9.27
50 | OVCAR-3 (ovary, adherent) | 0.986 | > 10.2 | 0.975 | > 1.02 | 0.887 | > 10 | 0.788 | 7.82
51 | OVCAR-5 (ovary, adherent) | 0.925 | > 10.2 | 0.976 | > 1.02 | 0.832 | 8.24 | 0.851 | > 16
52 | OVCAR-8 (ovary, adherent) | 0.838 | 5.92 | 0.989 | > 1.02 | 0.857 | 6.82 | 0.731 | 4.17
53 | OVISE (ovary, adherent) | 0.903 | > 10.2 | 0.974 | > 1.02 | 0.902 | > 10 | 0.767 | 7.89
54 | OVKATE (ovary, adherent) | 0.652 | 2.24 | 0.979 | > 1.02 | 0.859 | > 10 | 0.921 | > 16
55 | OVMIU (ovary, adherent) | 0.838 | 9.53 | 0.974 | > 1.02 | 0.809 | 6.84 | 0.688 | 3.87
56 | OVTOKO (ovary, adherent) | 0.879 | > 10.2 | 0.978 | > 1.02 | 0.711 | 2.93 | 0.629 | 2.5
57 | P12-ICHIKAWA (T-cell lymphoblastic leukaemia, suspension) | 0.934 | > 10.2 | 0.994 | > 1.02 | 0.966 | > 10 | 0.851 | 8.23

Lines with a small IC50 respond at low doses; fits outside the tested doses are given as limits. AUC sums up the same curve from the lowest dose to the 256-fold higher top dose; it is 1 without any effect and falls as sensitivity rises. A top dose marked as inferred is not printed in the source and was worked back from the curve model.
